# Experimental data reported in PubChem BioAssay AID463173 (ICCB-Longwood Screening Facility, Harvard Medical School, 2010).
# The whole screen tested about 52,000 compounds, of which about 4,300 (8.3%) were called active. No stated cut-off is given here; in the data, active means survival mostly below about 52% (no sharp cut-off); inactive means mostly above about 56%. The list shows a part of the results.
# Test system: DeltatarO mutant
# Assay: S. aureus survival, RN4220 and DeltatarO strains – OD600, teichoic acid synthesis inhibitors, primary screen (AID 463173)
# Conditions: S. aureus RN4220 wild type/DeltatarO growth, OD600, 18 h, stronger effect = lower value, screened at 18.75 µg/mL (by protocol)
row,SMILES,survival
1,CCOc1ccc(NC(=O)Cn2c(=O)n(-c3ccccc3)c(=O)c3c4c(sc32)CCCC4)cc1,active: 90%
2,CCCCN(c1ccccc1)c1ncnc2c1cnn2-c1cccc(C)c1,inactive: 78%
3,CC(=O)Nc1ccc2nc(SCCOc3ccccc3Cl)sc2c1,active: 3%
4,CCOC(=O)c1c(C)[nH]c(C)c1S(=O)(=O)N(C)CC(=O)Nc1ccc(C)c(F)c1,inactive: 75%
5,CCc1ccccc1NC(=O)c1ccc2c(c1)c(C)c(C)n2Cc1ccccc1,inactive: 89%
6,Cc1cc(C)c(NC(=O)C2CCCN(C(=O)c3cnn(-c4ccccc4)c3-n3cccc3)C2)c(C)c1 (configuration not stated),inactive: 59%
7,COC(=O)c1cc2sccc2n1Cc1nc(-c2ccc(C)cc2)oc1C,active: 28%
8,CN(C(=O)CSc1nc2ccccc2n1CC(=O)N(C)C1CCCCC1)c1ccc(F)cc1,inactive: 108%
9,COc1ccccc1-c1c(C)nn2c(N3CCN(c4ccc(F)cc4)CC3)cc(C)nc12,inactive: 81%
10,Clc1ccc(C2NCCS2)cc1 (configuration not stated),inactive: 101%
11,CC(C)n1c(=O)c2oc3ccccc3c2n(CC(=O)Nc2ccccc2Cl)c1=O,inactive: 60%
12,COC(=O)c1c(Oc2ccc(Br)cc2)nnc(-c2ccccc2)c1-c1ccccc1,inactive: 85%
13,Cc1c(Cl)cccc1NC(=O)Cn1c(=O)n(Cc2ccco2)c(=O)c2oc3ccccc3c21,inactive: 82%
14,O=C1CC(c2ccc(Br)cc2)c2c(ccc3ccccc23)N1 (configuration not stated),active: 32%
15,CCc1nc2nc(C)cc(Nc3ccc(F)c(Cl)c3)n2n1,inactive: 65%
16,Cc1ccc(CN2CCC(CNC(=O)Nc3cccc(C)c3C)C2)cc1 (configuration not stated),inactive: 112%
17,COc1cc(OC)c2c(C)c(CC(=O)N3CCCCC3)c(=O)oc2c1,inactive: 47%
18,CC(=O)N1CCCc2cc(S(=O)(=O)N3CCCC(C(=O)Nc4ccc(C)c(F)c4)C3)ccc21 (configuration not stated),inactive: 77%
19,Cc1cccc(C(=O)Nc2ccccc2OCc2cc(=O)n3cc(C)ccc3n2)c1,inactive: 60%

row,SMILES,survival
1,COc1ccc(OC(=O)c2ccc3snnc3c2)cc1,inactive: 86%
2,COc1cc(OC)cc(C(=O)Nc2cccc(-c3cn4ccsc4n3)c2)c1,active: 6%
3,COc1ccc(OC)c(CNc2ncnc3onc(C)c23)c1,inactive: 129%
4,CCOC(=O)c1cc2c(=O)n3ccccc3nc2n(C(C)C)c1=NC(=O)c1c(-c2c(F)cccc2Cl)noc1C,inactive: 151%
5,CCc1cccc(C)c1NC(=O)c1cc(S(=O)(=O)N2CCN(c3ccccc3)CC2)ccc1F,inactive: 90%
6,Cc1cccc(CCNC(=O)CCc2c(C)nc3c(c(C)nn3-c3ccccc3)c2C)c1,active: 48%
7,CN(C)c1ccc(C(=O)NCc2ccc3c(c2)CCN3C(=O)c2ccc(Cl)cc2)cc1,inactive: 102%
8,COc1ccc(Cl)cc1NC(=O)CCn1nc(C)cc1C,inactive: 67%
9,CC1=CCC2C(=O)N(C3CCCCC3)C(=O)C2C1 (configuration not stated),inactive: 79%
10,COc1ccc(CCNC(=O)c2cc(=O)[nH]c3ccc(S(=O)(=O)N4CCCCC4)cc23)cc1OC,inactive: 76%
11,CCOc1ccc(NC(=O)C2CCC(CNS(=O)(=O)c3ccc4c(c3)CCCC(=O)N4)CC2)cc1 (configuration not stated),active: 47%
12,CC(=O)Nc1c(C)nn(-c2ccccc2)c1N1CCC(C(=O)NCc2cccc(F)c2)CC1,active: 6%
13,Cc1ccc(N(CC(=O)N2CCN(c3cccc(C)c3C)CC2)S(=O)(=O)c2c(C)nn(C)c2C)cc1,inactive: 75%
14,CCN(c1cc(C)cc(C)c1)S(=O)(=O)c1nnc(NC(=O)c2ccccc2C)s1,inactive: 49%
15,CCOc1ccc(NC(=O)CSc2cn(CC(=O)N3CCOCC3)c3ccccc23)cc1,inactive: 95%
16,CC(C)OCCCn1c(SCc2ccccc2Cl)nc2c(sc3ccccc32)c1=O,inactive: 134%
17,CCC(Cc1ccccc1)NC(=O)c1cccc(Nc2nc3ccccc3nc2-n2nc(C)cc2C)c1 (configuration not stated),inactive: 63%
18,N#Cc1cc2cc3c(cc2nc1N1CCCN(C(=O)c2ccccc2)CC1)OCO3,inactive: 89%
19,CCC1CN(C(=O)N2CCC(C(=O)NCCC3=CCCCC3)CC2)c2ccccc2O1 (configuration not stated),inactive: 65%

row,SMILES,survival
1,CCC1CCCCN1C(=O)Cn1c(=O)n(-c2ccc(Cl)c(Cl)c2)c(=O)c2c(C)c(C(=O)N(C)C)sc21 (configuration not stated),inactive: 92%
2,O=S(=O)(Nc1cccc(-c2ccc(N3CCOCC3)nn2)c1)c1ccc(F)c(C(F)(F)F)c1,inactive: 80%
3,O=c1c2ccccc2[nH]c(=S)n1C1CCCC1,inactive: 88%
4,COc1ccc(-c2cc(C(F)(F)F)nc(SCC(=O)N(C)Cc3ccccc3)n2)cc1,inactive: 44%
5,CCOc1ccc(C(C(=O)NC2CCCC2)N(Cc2ccco2)C(=O)Cn2nnc3ccccc32)cc1OC (configuration not stated),inactive: 110%
6,Cn1nc(C(=O)NCc2ccccc2Cl)c2c1-c1ccccc1SC2,inactive: 81%
7,CCN(CC)c1nn2c(=O)c(C(=O)NCc3ccccc3Br)cnc2s1,inactive: 91%
8,CCCC(c1nnnn1Cc1ccc(OC)cc1)N1CCC(C(N)=O)CC1 (configuration not stated),inactive: 98%
9,CC1(C)CC(=O)C(C=NCc2ccccc2)=C(O)C1,inactive: 95%
10,O=C(NCCc1ccc(Cl)cc1)c1cc2c(s1)-c1ccccc1OC2,inactive: 61%
11,CCOc1ccc(NC(=O)N2CCN(C(=O)c3nsc4ccccc34)CC2)cc1,inactive: 94%
12,COc1cc(OC)c2c(C)c(CC(=O)NCc3ccccc3OC)c(=O)oc2c1,inactive: 54%
13,Cc1cccc(NC(=O)c2ccc(Cn3nc(N4CCN(c5ccccc5)CC4)ccc3=O)o2)c1C,inactive: 77%
14,Cc1cc(=O)n(Cc2ccc(Br)cc2F)c2c1c(C)nn2-c1ccccc1,inactive: 101%
15,Cc1ccc(NC(=O)Cn2c(=O)n(CCCCC(=O)NCCc3ccccc3)c(=O)c3ccccc32)cc1,inactive: 83%
16,O=C(CCNS(=O)(=O)c1ccc2c(c1)CCCC(=O)N2)NCc1ccc(Cl)cc1,inactive: 96%
17,Cc1cc(Cl)ccc1OCCSc1nnc(-c2cccs2)o1,active: 37%
18,COc1ccc(CN(CCN(C)C)Cc2ccccc2)c(OC)c1,inactive: 109%
19,CCc1nccn1S(=O)(=O)c1cc(Br)ccc1Br,active: 43%
